{"source": "patent US9950026B2", "about": "“Methods for reducing oxidative damage” (Cornell Research Foundation, Inc., priority 2004, dated 2018)", "key": {"[1]": {"test_system": "Caco-2 cells", "test": "Subcellular distribution of fluorescent analog (CLSM with TMRM)", "assay_type": "in vitro ADME, human"}, "[2]": {"test_system": "Caco-2 cells", "test": "Uptake of fluorescent analog by confocal laser scanning microscopy", "assay_type": "in vitro ADME, human"}, "[3]": {"test_system": "isolated mouse liver mitochondria", "test": "H2O2 production by isolated mitochondria, luminol chemiluminescence", "assay_type": "biochemical", "conditions": "spontaneous, SS peptides 100 μM", "method": "Because mitochondria are a major source of ROS production, the effect of SS-02 on H2O2 formation in isolated mitochondria under basal conditions as well as after treatment with antimycin, a complex III inhibitor was examined. Livers were harvested from mice and homogenized in ice-cold buffer and centrifuged at 13800×g for 10 m. The pellet was washed once and then re-suspended in 0.3 ml of wash butter and placed on ice until use H2O2 was measured using luminol chemiluminescence as described previously (Y. Li, H. Zhu, M. A. Trush, Biochim. Biophys. Acta 1428, 1-12 (1999)). 0.1 mg mitochondrial protein was added to 0.5 ml potassium phosphate buffer (100 mM, pH 8.0) in the absence or presence of SS peptides (100 μM). 25 mM luminol and 0.7 IU horseradish peroxidase were added, and chemilumunescence was monitored with a Chronolog Model 560 aggregometer (Havertown, Pa.) for 20 min at 37° C. The amount of H2O2 produced was quantified as the area under the curve (AUC) over 20 min, and all data were normalized to AUC produced by mitochondria alone.\nH2O2 was measured using luminol chemiluminescence as described previously (Y, Li, H. Zhu, M. A. Trush, Biochim. Biophys. Acta 1428, 1-12 (1999)). 0.1 mg mitochondrial protein was added to 0.5 ml potassium phosphate buffer (100 mM, pH 8.0) in the absence or presence of SS-31. 25 mM luminol and 0.7 IU horseradish peroxidase were added, and chemilumunescence was monitored with a Chronolog Model 560 aggregometer (Havertown, Pa.) for 20 min at 37° C. The amount of H2O2 produced was quantified as the area under the curve (AUC) over 20 min, and all data were normalized to AUC produced by mitochondria alone."}, "[4]": {"test": "Scavenging of H2O2, luminol-induced chemiluminescence", "assay_type": "biochemical", "conditions": "H2O2 4.4 nmol, 20 min, 37° C.", "method": "Effect of SS-02 and SS-05 (Dmt-D-Arg-Phe Orn-NH2) on H2O2 as measured by luminol-induced chemiluminescence, 25 μM luminol and 0.7 IU horseradish peroxidase were added to the solution of H2O2 (4.4 nmol) and peptide, and chemiluminescence was monitored with a Chronolog Model 560 aggregometer (Havertown, Pa.) for 20 min at 37° C."}, "[5]": {"test_system": "Human LDL (low density lipoprotein)", "test": "LDL oxidation induced by CuSO4 (conjugated dienes)", "assay_type": "biochemical", "conditions": "peptides 100 μM", "method": "Human LDL (low density lipoprotein) was prepared fresh from stored plasma. LDL oxidation was induced catalytically by the addition of […] CuSO4, and the formation of conjugated dienes was monitored at […] for 5 h at 37° C. (B. Moosmann and C. Behl, Mol Pharmacol., 61, 260-268 (2002))."}}, "note": "Where a SMILES comes first, the peptide text is derived from it. Where no end group is shown, it is not given here. [ ]: non-standard residue; d: D form. The star is where a group is joined. Dansyl = CN(C)c1cccc2c(S(=O)(=O)*)cccc12; Dmt = Cc1cc(O)cc(C)c1C[C@H](N)C(=O)O; 2Abz = Nc1ccccc1C(=O)O; Dap = NC[C@H](N)C(=O)O"}
{"molecule": "Cc1cc(O)cc(C)c1C[C@H](N)C(=O)N[C@H](CCCNC(=N)N)C(=O)N[C@@H](Cc1ccccc1)C(=O)N[C@@H](CNC(=O)c1ccccc1N)C(N)=O", "note": "[[Dmt^1,AtnDap^4]DALDA, Dmt-D-Arg-Phe-atnDap-NH2] (H-[Dmt][dR]F[Dap](2Abz)-NH2; N-terminus assumed)", "values": [{"measurement": "distribution nucleus/cytoplasm", "setting": "[1]", "result": "completely excluded from the nucleus"}, {"measurement": "distribution to mitochondria (overlap with TMRM)", "setting": "[1]", "result": "to mitochondria was demonstrated"}, {"measurement": "incubation time after which uptake was shown", "setting": "[1]; 0.1 μM, 37° C.", "result": 15, "unit": "min"}]}
{"molecule": "Cc1cc(O)cc(C)c1C[C@H](N)C(=O)N[C@H](CCCNC(=N)N)C(=O)N[C@@H](Cc1ccccc1)C(=O)N[C@@H](CNS(=O)(=O)c1cccc2c(N(C)C)cccc12)C(N)=O", "note": "[[Dmt^1,DnsDap4]DALDA, Dmt-D-Arg-Phe-dnsDap-NH2] (H-[Dmt][dR]F[Dap](Dansyl)-NH2; N-terminus assumed)", "values": [{"measurement": "intracellular distribution of fluorescence", "setting": "[2]", "result": "diffuse throughout the cytoplasm but was completely excluded from the nucleus"}, {"measurement": "uptake into cells (CLSM)", "setting": "[2]; 0.1 μM, 1 h, 37° C.", "result": "confirmed the uptake"}]}
{"molecule": "A[dR]FK-NH2 [SS-22]", "values": [{"measurement": "amount of H2O2 generated (AUC over 20 min)", "setting": "[3]", "result": "no effect"}]}
{"molecule": "Cyclohexyl-D-Arg-Phe-Lys-NH2 [SS-21]", "values": [{"measurement": "amount of H2O2 generated (AUC over 20 min)", "setting": "[3]", "result": "no effect"}]}
{"molecule": "Dmt-D-Arg-Phe Orn-NH2 [SS-05]", "values": [{"measurement": "luminol response (H2O2 scavenging)", "setting": "[4]", "result": "dose-dependently inhibited"}, {"measurement": "rate of LDL oxidation (rate of formation of conjugated dienes)", "setting": "[5]", "result": "reduced rate of LDL oxidation"}]}
{"molecule": "F[dR][Dmt]K-NH2 [SS-30]", "values": [{"measurement": "rate of LDL oxidation (rate of formation of conjugated dienes)", "setting": "[5]", "result": "reduced rate of LDL oxidation"}, {"measurement": "amount of H2O2 generated (AUC over 20 min)", "setting": "[3]", "result": "significantly reduced"}]}
